In patent US20060057198A1, “Drug delivery from embolic agents” (BIOCOMPATIBLES UK LIMITED, priority 2003, published 2006):
Like-named read-outs stand apart in the source and are kept apart here.

How the values were obtained:
[1] = 100 ml water, 37° C.; released in the first 15 minutes
[2] = 10 ml water, 37° C.; released in the first 5 minutes

| drug released [1] | loaded drug released [1] | loaded drug released [2] | Compound |
| --- | --- | --- | --- |
| approximately 2.5 mg/ml of microspheres | 20-25% |  | CC(C(=O)O)c1cccc(C(=O)c2ccccc2)c1 (stereo not drawn) [Ketoprofen] |
|  |  | 17-25% | COc1ccc2cc([C@H](C)C(=O)O)ccc2c1 [Naproxen] |
